# This is one part of the list.
# B1: Tamarinin (protein)
# chain: CDDSARAGNIVVYWGQGGSDNSEGSLKEACKSGHYNMIVLQQLIVYDDGRDPDLNLGAHCSDCTKLEEQIKYCQNKDIKILLQIGQVVPTQEDVKDVTKNLSEYLLKNFFSGKSGPLGEVYLNGIDIASVPEGNNLKFDELVEALNDSSTERRIYLSASPLCVYPDYYLNKAIQTEKLDFLFVQFFYQNPCIYTEGNPENLFEAMKTWTKNVPESMIFMALPATPNLDGYIPPRVLNKEILPAVSEASNFAGVMIFDRYFDRFRKYSSKIK
# How the values were obtained:
# Experiment in all cases: glycan array binding signal (z-score within array); higher = stronger binding
# Conditions in all cases: glycan notation: IUPAC condensed, linker removed
# [1] = molecular target: GlcNAc(b1-2)Gal(b1-3)GalNAc
# Method in brief: (§1)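 Negative Z-scores can be read as non-binding. The Z-score is calculated within each array and then averaged across arrays of one protein sequence at different concentrations or buffers and across linkers. Arrays, 3228 in all, were curated from the Consortium for Functional Glycomics database and kept only where the protein sequence was available.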
# [2] = molecular target: GlcNAc(b1-2)Man(a1-3)[GlcNAc(b1-2)Man(a1-6)]Man(b1-4)GlcNAc(b1-4)GlcNAc
# Method in brief: as §1
# [3] = molecular target: GlcNAc(b1-2)Man(a1-3)[GlcNAc(b1-2)Man(a1-6)]Man(b1-4)GlcNAc(b1-4)[Fuc(a1-6)]GlcNAc
# Method in brief: as §1
# [4] = molecular target: GlcNAc(b1-2)Man(a1-3)[GlcNAc(b1-4)][GlcNAc(b1-2)Man(a1-6)]Man(b1-4)GlcNAc(b1-4)GlcNAc
# Method in brief: as §1
# [5] = molecular target: GlcNAc(b1-2)Man(a1-3)[GlcNAc(b1-4)][GlcNAc(b1-2)Man(a1-6)]Man(b1-4)GlcNAc(b1-4)[Fuc(a1-6)]GlcNAc
# Method in brief: as §1
# [6] = molecular target: GlcNAc(b1-2)[GlcNAc(b1-4)]Man(a1-3)[GlcNAc(b1-2)Man(a1-6)]Man(b1-4)GlcNAc(b1-4)GlcNAc
# Method in brief: as §1
# [7] = molecular target: GlcNAc(b1-2)[GlcNAc(b1-4)]Man(a1-3)[GlcNAc(b1-4)][GlcNAc(b1-2)Man(a1-6)]Man(b1-4)GlcNAc(b1-4)GlcNAc
# Method in brief: as §1
# [8] = molecular target: GlcNAc(b1-2)[GlcNAc(b1-4)]Man(a1-3)[GlcNAc(b1-4)][GlcNAc(b1-2)[GlcNAc(b1-6)]Man(a1-6)]Man(b1-4)GlcNAc(b1-4)GlcNAc
# Method in brief: as §1
# [9] = molecular target: GlcNAc(b1-2)[GlcNAc(b1-4)]Man(a1-3)[GlcNAc(b1-4)][GlcNAc(b1-2)[GlcNAc(b1-6)]Man(a1-6)]Man(b1-4)GlcNAc(b1-4)[Fuc(a1-6)]GlcNAc
# Method in brief: as §1
# [10] = molecular target: GlcNAc(b1-2)[GlcNAc(b1-6)]Man(a1-6)[GlcNAc(b1-2)Man(a1-3)]Man(b1-4)GlcNAc(b1-4)GlcNAc
# Method in brief: as §1
# [11] = molecular target: GlcNAc(b1-2)[GlcNAc(b1-6)]Man(a1-6)[GlcNAc(b1-2)Man(a1-3)]Man(b1-4)GlcNAc(b1-4)[Fuc(a1-6)]GlcNAc
# Method in brief: as §1
# [12] = molecular target: GlcNAc(b1-2)[GlcNAc(b1-6)]Man(a1-6)[GlcNAc(b1-4)][GlcNAc(b1-2)Man(a1-3)]Man(b1-4)GlcNAc(b1-4)GlcNAc
# Method in brief: as §1
# GlcNAc(b1-3)Fuc = molecular target: GlcNAc(b1-3)Fuc
# Method in brief: as §1
# GlcNAc(b1-3)Gal = molecular target: GlcNAc(b1-3)Gal
# Method in brief: as §1
# [13] = molecular target: GlcNAc(b1-3)Gal(b1-3)GalNAc
# Method in brief: as §1
# GlcNAc(b1-3)Gal(b1-4)Glc = molecular target: GlcNAc(b1-3)Gal(b1-4)Glc
# Method in brief: as §1
# [14] = molecular target: GlcNAc(b1-3)Gal(b1-4)GlcNAc
# Method in brief: as §1
# [15] = molecular target: GlcNAc(b1-3)Gal(b1-4)GlcNAc(b1-2)Man(a1-3)[GlcNAc(b1-3)Gal(b1-4)GlcNAc(b1-2)Man(a1-6)]Man(b1-4)GlcNAc(b1-4)GlcNAc
# Method in brief: as §1
# [16] = molecular target: GlcNAc(b1-3)Gal(b1-4)GlcNAc(b1-2)Man(a1-3)[GlcNAc(b1-3)Gal(b1-4)GlcNAc(b1-2)Man(a1-6)]Man(b1-4)GlcNAc(b1-4)[Fuc(a1-6)]GlcNAc
# Method in brief: as §1
# [17] = molecular target: GlcNAc(b1-3)Gal(b1-4)GlcNAc(b1-2)[GlcNAc(b1-3)Gal(b1-4)GlcNAc(b1-6)]Man(a1-6)[GlcNAc(b1-3)Gal(b1-4)GlcNAc(b1-2)Man(a1-3)]Man(b1-4)GlcNAc(b1-4)GlcNAc
# Method in brief: as §1
# [18] = molecular target: GlcNAc(b1-3)Gal(b1-4)GlcNAc(b1-3)Gal(b1-4)GlcNAc
# Method in brief: as §1
# [19] = molecular target: GlcNAc(b1-3)Gal(b1-4)GlcNAc(b1-3)Gal(b1-4)GlcNAc(b1-2)Man(a1-3)[GlcNAc(b1-3)Gal(b1-4)GlcNAc(b1-3)Gal(b1-4)GlcNAc(b1-2)Man(a1-6)]Man(b1-4)GlcNAc(b1-4)GlcNAc
# Method in brief: as §1
# [20] = molecular target: GlcNAc(b1-3)Gal(b1-4)GlcNAc(b1-3)Gal(b1-4)GlcNAc(b1-2)Man(a1-3)[GlcNAc(b1-3)Gal(b1-4)GlcNAc(b1-3)Gal(b1-4)GlcNAc(b1-2)Man(a1-6)]Man(b1-4)GlcNAc(b1-4)[Fuc(a1-6)]GlcNAc
# Method in brief: as §1
# [21] = molecular target: GlcNAc(b1-3)Gal(b1-4)GlcNAc(b1-3)Gal(b1-4)GlcNAc(b1-2)[GlcNAc(b1-3)Gal(b1-4)GlcNAc(b1-3)Gal(b1-4)GlcNAc(b1-6)]Man(a1-6)[GlcNAc(b1-3)Gal(b1-4)GlcNAc(b1-3)Gal(b1-4)GlcNAc(b1-2)Man(a1-3)]Man(b1-4)GlcNAc(b1-4)[Fuc(a1-6)]GlcNAc
# Method in brief: as §1
# [22] = molecular target: GlcNAc(b1-3)Gal(b1-4)GlcNAc(b1-3)Gal(b1-4)GlcNAc(b1-3)Gal(b1-4)GlcNAc(b1-2)Man(a1-3)[GlcNAc(b1-3)Gal(b1-4)GlcNAc(b1-3)Gal(b1-4)GlcNAc(b1-3)Gal(b1-4)GlcNAc(b1-2)Man(a1-6)]Man(b1-4)GlcNAc(b1-4)GlcNAc
# Method in brief: as §1
# [23] = molecular target: GlcNAc(b1-3)Gal(b1-4)GlcNAc(b1-3)Gal(b1-4)GlcNAc(b1-3)Gal(b1-4)GlcNAc(b1-2)Man(a1-3)[GlcNAc(b1-3)Gal(b1-4)GlcNAc(b1-3)Gal(b1-4)GlcNAc(b1-3)Gal(b1-4)GlcNAc(b1-2)Man(a1-6)]Man(b1-4)GlcNAc(b1-4)[Fuc(a1-6)]GlcNAc
# Method in brief: as §1
# [24] = molecular target: GlcNAc(b1-3)Gal(b1-4)GlcNAc(b1-3)Gal(b1-4)GlcNAc(b1-3)Gal(b1-4)GlcNAc(b1-2)[GlcNAc(b1-3)Gal(b1-4)GlcNAc(b1-3)Gal(b1-4)GlcNAc(b1-3)Gal(b1-4)GlcNAc(b1-6)]Man(a1-6)[GlcNAc(b1-3)Gal(b1-4)GlcNAc(b1-3)Gal(b1-4)GlcNAc(b1-3)Gal(b1-4)GlcNAc(b1-2)Man(a1-3)]Man(b1-4)GlcNAc(b1-4)[Fuc(a1-6)]GlcNAc
# Method in brief: as §1
# [25] = molecular target: GlcNAc(b1-3)Gal(b1-4)GlcNAc(b1-3)Gal(b1-4)GlcNAc(b1-3)Gal(b1-4)GlcNAc(b1-3)Gal(b1-4)GlcNAc(b1-2)Man(a1-3)[GlcNAc(b1-3)Gal(b1-4)GlcNAc(b1-3)Gal(b1-4)GlcNAc(b1-3)Gal(b1-4)GlcNAc(b1-3)Gal(b1-4)GlcNAc(b1-2)Man(a1-6)]Man(b1-4)GlcNAc(b1-4)GlcNAc
# Method in brief: as §1
# [26] = molecular target: GlcNAc(b1-3)Gal(b1-4)GlcNAc(b1-3)Gal(b1-4)GlcNAc(b1-3)Gal(b1-4)GlcNAc(b1-3)Gal(b1-4)GlcNAc(b1-2)Man(a1-3)[GlcNAc(b1-3)Gal(b1-4)GlcNAc(b1-3)Gal(b1-4)GlcNAc(b1-3)Gal(b1-4)GlcNAc(b1-3)Gal(b1-4)GlcNAc(b1-2)Man(a1-6)]Man(b1-4)GlcNAc(b1-4)[Fuc(a1-6)]GlcNAc
# Method in brief: as §1
# [27] = molecular target: GlcNAc(b1-3)Gal(b1-4)GlcNAc(b1-3)Gal(b1-4)GlcNAc(b1-3)Gal(b1-4)GlcNAc(b1-3)Gal(b1-4)GlcNAc(b1-2)[GlcNAc(b1-3)Gal(b1-4)GlcNAc(b1-3)Gal(b1-4)GlcNAc(b1-3)Gal(b1-4)GlcNAc(b1-3)Gal(b1-4)GlcNAc(b1-6)]Man(a1-6)[GlcNAc(b1-3)Gal(b1-4)GlcNAc(b1-3)Gal(b1-4)GlcNAc(b1-3)Gal(b1-4)GlcNAc(b1-3)Gal(b1-4)GlcNAc(b1-2)Man(a1-3)]Man(b1-4)GlcNAc(b1-4)[Fuc(a1-6)]GlcNAc
# Method in brief: as §1
# [28] = molecular target: GlcNAc(b1-3)Gal(b1-4)GlcNAc(b1-3)Gal(b1-4)GlcNAc(b1-3)GalNAc
# Method in brief: as §1
# [29] = molecular target: GlcNAc(b1-3)Gal(b1-4)GlcNAc(b1-3)GalNAc
# Method in brief: as §1
# [30] = molecular target: GlcNAc(b1-3)Gal(b1-4)GlcNAc(b1-3)[GlcNAc(b1-3)Gal(b1-4)GlcNAc(b1-3)]GalNAc
# Method in brief: as §1
# [31] = molecular target: GlcNAc(b1-3)Gal(b1-4)GlcNAc(b1-6)[Gal(b1-3)]GalNAc
# Method in brief: as §1
# [32] = molecular target: GlcNAc(b1-3)Gal(b1-4)GlcNAc(b1-6)[GlcNAc(b1-3)Gal(b1-3)]GalNAc
# Method in brief: as §1
# [33] = molecular target: GlcNAc(b1-3)Gal(b1-4)GlcNAc(b1-6)[GlcNAc(b1-3)]Gal(b1-4)GlcNAc
# Method in brief: as §1
# GlcNAc(b1-3)GalNAc = molecular target: GlcNAc(b1-3)GalNAc
# Method in brief: as §1
binder,measurement,setting,value
B1,glycan array binding signal (z-score),[1],-0.158
same,glycan array binding signal (z-score),[2],-0.317
same,glycan array binding signal (z-score),[3],-0.194
same,glycan array binding signal (z-score),[4],-0.259
same,glycan array binding signal (z-score),[5],-0.526
same,glycan array binding signal (z-score),[6],-0.413
same,glycan array binding signal (z-score),[7],-0.017
same,glycan array binding signal (z-score),[8],-0.199
same,glycan array binding signal (z-score),[9],-0.436
same,glycan array binding signal (z-score),[10],-0.264
same,glycan array binding signal (z-score),[11],0.474
same,glycan array binding signal (z-score),[12],-0.469
same,glycan array binding signal (z-score),GlcNAc(b1-3)Fuc,-0.324
same,glycan array binding signal (z-score),GlcNAc(b1-3)Gal,-0.449
same,glycan array binding signal (z-score),[13],-0.288
same,glycan array binding signal (z-score),GlcNAc(b1-3)Gal(b1-4)Glc,-0.18
same,glycan array binding signal (z-score),[14],-0.424
same,glycan array binding signal (z-score),[15],-0.317
same,glycan array binding signal (z-score),[16],-0.176
same,glycan array binding signal (z-score),[17],-0.515
same,glycan array binding signal (z-score),[18],-0.438
same,glycan array binding signal (z-score),[19],0.314
same,glycan array binding signal (z-score),[20],0.122
same,glycan array binding signal (z-score),[21],0.807
same,glycan array binding signal (z-score),[22],-0.183
same,glycan array binding signal (z-score),[23],0.078
same,glycan array binding signal (z-score),[24],0.369
same,glycan array binding signal (z-score),[25],-0.181
same,glycan array binding signal (z-score),[26],-0.061
same,glycan array binding signal (z-score),[27],-0.28
same,glycan array binding signal (z-score),[28],-0.388
same,glycan array binding signal (z-score),[29],-0.411
same,glycan array binding signal (z-score),[30],-0.332
same,glycan array binding signal (z-score),[31],-0.358
same,glycan array binding signal (z-score),[32],-0.102
same,glycan array binding signal (z-score),[33],-0.274
same,glycan array binding signal (z-score),GlcNAc(b1-3)GalNAc,-0.342

# — the supplement of paper PMC8728848
